Laboratory results: PubChem BioAssay AID1345083 (National Center for Advancing Translational Sciences (NCATS), 2018)
The campaign covered roughly 94,000 compounds. About 6,200 (6.6%) were called active. The inconclusive results got no clear call from the source; some entries with a clear call stand among them for comparison. The call rests on the fitted dose curve; in most records, active means well fitted inhibition curve with a large enough effect; inconclusive means small, poorly fitted or top-dose-only effect; inactive means flat fitted curve, though single readings scatter. Potencies beside an inconclusive call are fits to weak or partial responses and may not hold up.

Assay: Cytotoxic Profiling in HEK 293 Cell Line of Diverse Libraries Using Quantitative High-Throughput Screening; further: nearly all actives have a fitted effect of over 60% in size
Conditions: HEK 293 viability, ATP luminescence (CellTiter-Glo), 48-72 h; series mostly up to 115 µM
In short: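 HEK 293 cells seeded at 250 cells/well were exposed to compound for 48 or 72 hr at 37 degree Celsius. Viability taken as ATP content by CellTiter-Glo luminescence.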
Potency means the concentration at half of the fitted maximal effect; tags describe the fitted curve by direction and shape.

SMILES | Potency
COCC(=O)N[C@@H]1CN(Cc2ccncc2)C[C@H]1CN(C)C | inconclusive: 89.1 µM [inhibitor, single point]
CC1(COc2ccccc2)COc2ccc(C(=O)NCc3cnccn3)cc2N1 (configuration not stated) | inconclusive: 89.1 µM [inhibitor, partial curve, poor fit]
Cc1ccc(C2NC(=O)N(CC(=O)Nc3ccc(C(F)(F)F)cc3)C3=C2C(=O)OC3)cc1 (configuration not stated) | active: 25.1 µM
CCOc1ccc(NC(=O)Cn2c(-c3cccc(Cl)c3)nc(C)c(CCO)c2=O)cc1 | inconclusive: 39.8 µM [inhibitor, partial curve]
Cc1ccc(NC(=O)c2cn3cc(-c4ccc(C)cc4)sc3n2)cc1 | inactive
COC1C(=O)N(CC2CC2)C12CCN(C(=O)C1CC1)CC2 (configuration not stated) | inactive
CCCC(=O)N1CCC2(CC1)NCCc1c2[nH]c2ccc(OC)cc12 | inconclusive: 39.8 µM [inhibitor, full curve, poor fit]
COc1ccccc1-c1cnc2n[nH]c(-c3ccccc3)c2n1 | inconclusive: 100 µM [inhibitor, partial curve, poor fit]
O=C(c1cc2ccccc2[nH]1)N1CCC2(C1)NC(=O)N(Cc1ccc(Cl)cc1)C2=O (configuration not stated) | active: 35.5 µM
O=C(NCc1cccs1)C1CCc2nnc(-c3cccc(C(F)(F)F)c3)n21 (configuration not stated) | inactive
Cc1nn(-c2ccccc2)c2c1C(C(C)C)N(C1CCN(C(=O)c3ccncc3)C1)C2=O (configuration not stated) | inconclusive: 100 µM [inhibitor, partial curve, poor fit]
O=C(NCc1ccnc2[nH]ccc12)c1ccccc1Cl | inactive
Cc1ccc(-c2cc3c(=O)n(CCNC(=O)c4ccc(F)c(F)c4)ccn3n2)cc1C | inactive
Cc1cccc(-n2cc(CN(C)C(C)c3ccon3)c(-c3cccc(F)c3)n2)c1 (configuration not stated) | inconclusive: 28.2 µM [inhibitor, full curve]
Cc1cnc(CC2CCCNC2)n1Cc1ccc(F)cc1 (configuration not stated) | inconclusive: 89.1 µM [inhibitor, single point]
O=C(c1ccc(-c2ncc3cnc(-c4cccc(F)c4)cn23)cc1)N1CC(O)C1 | inconclusive: 112 µM [inhibitor, partial curve, poor fit]
O=C(O)C[C@@H]1CCN(C(=O)Cc2cccs2)C[C@@H]1CCN1CCN(c2ccc(F)cc2)CC1 | inactive
COc1cccc(CN2CCn3c(nn(-c4ccncc4)c3=O)C2)c1 | inconclusive: 28.2 µM [inhibitor, partial curve, poor fit]
NC(=O)[C@H](Cc1ccc(O)cc1)NC(=O)C1=C[C@@H](NC(=O)c2ccc(F)c(Cl)c2)[C@@H](O)[C@H](O)C1 | inactive
COc1cccc(C(=O)N2CCC(n3cc(-c4nc(-c5ccccc5)no4)nn3)C2)c1 (configuration not stated) | inconclusive: 50.1 µM [inhibitor, partial curve, poor fit]
O=S(=O)(c1ccccc1C(F)(F)F)N1CCC(C2CCNC2)CC1 (configuration not stated) | inconclusive: 39.8 µM [inhibitor, partial curve]

SMILES | Potency
COc1ccc(F)cc1-c1cccc(C(=O)NCCN[S+](=O)([O-])c2ccc(C)cc2)c1 | inconclusive: 56.2 µM [inhibitor, partial curve, poor fit]
O=C(NCc1cccc(F)c1)C1CCN(Cc2ccccc2-c2cccnc2)CC1 | inactive
COC(=O)[C@@H]1Cc2ncn(C(C)C)c2CN1C(=O)c1ccccc1 | inactive
COC[C@H]1NC(=O)CC[C@H]1C(=O)N1CCN(c2cccc(C)c2C)CC1 | inactive
CNC(=O)C1(C)CN(Cc2ccccc2)Cc2ccc(Nc3ccccc3)nc21 (configuration not stated) | active: 79.4 µM
Cc1nc2cc(N3CCCC(C(=O)NCCN4CCCCCC4)C3)cnc2nc1C (configuration not stated) | inactive
C[C@H]1CN(C(=O)c2nn(C)c3ccccc23)C[C@@H]1c1nc(-c2ccncc2)no1 | inconclusive: 44.7 µM [inhibitor, partial curve, poor fit]
CCCN(C)c1nccnc1OC1CCN(C(=O)c2ccccc2OC)C1 (configuration not stated) | inconclusive: 44.7 µM [inhibitor, partial curve, poor fit]
COc1ccccc1C(=O)Nc1ccc(C(O)[C@H]2COCC(=O)N2C)cc1 (some centres not stated) | inactive
COc1ccc(N2CC(c3noc(-c4ccc(OC)cc4C)n3)CC2=O)cc1 (configuration not stated) | inconclusive: 50.1 µM [inhibitor, partial curve, poor fit]
COc1ccccc1CN1CCN(C(=O)c2ccc(CCC(C)(C)O)cc2)CC1 | inactive
O=C(c1ccc2c(c1)OCO2)N1CCC2(CC1)NC(=O)N(c1cccc(F)c1)N2 | inconclusive: 31.6 µM [inhibitor, full curve]
COc1cccc(NC(=O)c2cnc(-c3ccc(C)cc3)nc2-c2ccncc2)c1 | inconclusive: 50.1 µM [inhibitor, partial curve, poor fit]
COc1ccc(C(=O)N2CCC3(CC2)Cc2ccccc2NC3=O)cc1 | active: 22.4 µM
COc1ccccc1CNC(=O)c1noc(-c2ccc(C)cc2)n1 | inconclusive: 89.1 µM [inhibitor, single point]
Cc1cc(C(=O)N2CCC(N3C(=O)C4(CCCC4)C3c3ccccc3)CC2)nn1C (configuration not stated) | inactive
Cc1ccc([S+](=O)([O-])N2CCN(C(=O)c3nc4cccnc4n(CC(C)C)c3=O)CC2)cc1 | inconclusive: 50.1 µM [inhibitor, partial curve, poor fit]
CN1CCN(Cc2ccc(Nc3cnc4ccc(N5CCOCC5)nn34)cc2)CC1 | inconclusive: 112 µM [inhibitor, partial curve, poor fit]
O=C(c1noc(-c2ccc(F)cc2)n1)N1CCN(c2ccc(Cl)cc2)CC1 | inconclusive: 89.1 µM [inhibitor, single point]
CC1=NOC(C(=O)N2CCOc3c(O)cc(-c4nc(C)cnc4C)cc3C2)C1 (configuration not stated) | inactive
N#Cc1cccc(NC(=O)N2Cc3[nH]cnc3C[C@H]2c2nc(-c3cccc([N+](=O)[O-])c3)no2)c1 | inconclusive: 50.1 µM [inhibitor, partial curve, poor fit]
